Results as given in PubChem BioAssay AID624202 (National Center for Advancing Translational Sciences (NCATS), 2012).
The whole screen tested about 380,000 compounds, of which about 4,000 (1.1%) were called active. The shares of active, inactive and inconclusive entries below differ from those in the screen. Calls follow the shape of the dose curve; as a rule, active = well fitted activation curve with a large enough effect; inconclusive = small, poorly fitted or top-dose-only effect; inactive = no such curve, though single readings can be large or run the other way. Potencies of inconclusive entries are doubtful fits and often do not repeat.
Potency is read from the fitted curve at half-maximal effect; tags tell the direction and shape of the fitted curve.

Assay: qHTS Assay to Identify Small Molecule Activators of BRCA1 Expression; also: nearly all actives have a fitted effect of over 80% in size
Conditions: MCF7-BRCA1-FFLuc reporter, luminescence, 48 h; activation: at 46.1 µM (top of the series), scaled: vehicle 0%, 10 µM genistein 100% unless noted
Method in brief: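 MCF7 cells carrying a BRCA1-firefly luciferase reporter (2000 cells/well, phenol-red free MEM) were attached for 2 h at 37 °C, then given compounds for 48 h. Luminescence was read 15 min after luciferase reagent; activity normalized to genistein (10 microM) and DMSO.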
In the case of `CC(=O)Nc1ccc(NC(=O)c2ccc(C)c(S(=O)(=O)Nc3cccc(C)c3)c2)cc1`, the “activation” value is reported as inactive: -45.6%. With `O=C(Nc1ccc(-c2noc(-c3ccccc3F)n2)cc1)c1cccs1` the Potency was inconclusive: 1.26 µM [activator, full curve, poor fit]. With `CCOc1ccc(NC(=O)n2ncc3c(C)cccc32)cc1` the Potency was inconclusive: 1.26 µM [activator, partial curve, poor fit]. With `CC1(c2nnc(-c3ccc(Cl)cc3)o2)CC(c2cccc(Cl)c2)=NO1` (stereo not drawn) the “activation” value was inactive: 10.3%. For `CC(=O)Nc1nc(-c2ccc3ccccc3c2)cs1`, the Potency was inconclusive: 1.12 µM [activator, full curve, poor fit]. For `O=C(Nc1cccc(S(=O)(=O)Nc2ccc(Cl)cc2)c1)c1ccc(Cl)nc1`, the “activation” value was inactive: -51.4%. In the case of `CCOC(=O)c1c(N)sc(=S)c2c1CCC2`, the “activation” value is reported as inactive: -37.6%. With `CCOc1ccccc1OCC(=O)Nc1nc2ccccc2[nH]1` the “activation” value was inactive: -0.53%. With `COc1ccc(CN2C(=O)C(Cc3ccccc3)Nc3ncnc(N4CCN(c5ccccc5)CC4)c32)cc1` (stereo not drawn) the “activation” value was inactive: -41.3%. With `NC(=N\N=Cc1ccco1)/C(N)=N/N=Cc1ccco1` the Potency was inconclusive: 11.2 µM [activator, partial curve, poor fit]. For `Cc1ccc(SC[C@H](Cc2ccccc2)N2CC[C@@H](C)CCC2=O)cc1`, the “activation” value was inactive: -26.8%. With `CN(Cc1ccco1)S(=O)(=O)c1nnc(NC(=O)c2cccc(Cl)c2)s1` the Potency was inconclusive: 35.5 µM [activator, single point]. In the case of `O=C(NCc1ccco1)C(=O)c1c[nH]c2ccccc12`, the Potency is reported as inconclusive: 20 µM [activator, partial curve, poor fit]. For `CN(C)c1ccc(C=Cc2ccnc3c(O)cccc23)cc1`, the “activation” value was inactive: -64.3%. In the case of `CCOc1ccc(N/C=C/C(=O)c2ccc(C)cc2)c([N+](=O)[O-])c1`, the Potency is reported as inconclusive: 3.16 µM [activator, full curve, poor fit]. In the case of `O=C(NCc1ccco1)/C(=C/c1ccc(C(F)(F)F)cc1)c1nc2ccccc2[nH]1`, the Potency is reported as inconclusive: 31.6 µM [activator, single point]. In the case of `CCOc1cc(/C=N/Nc2nc(-c3cccs3)c(NC(C)=O)s2)ccc1O`, the “activation” value is reported as inactive: -16.5%. For `O=C(c1ccc2c(c1)OCO2)N1CCN(c2ccccc2F)CC1`, the Potency was inconclusive: 17.8 µM [activator, single point]. With `COCCCNC(=O)/C=C1\Sc2ccccc2N(Cc2ccccc2F)C1=O` the Potency was inconclusive: 17.8 µM [activator, single point]. In the case of `O=C(Nc1ccc(N2CCOCC2)c(Cl)c1)c1ccccc1Cl`, the Potency is reported as inconclusive: 11.2 µM [activator, partial curve, poor fit]. With `COc1ccccc1C(=O)Nc1ccnn1C1CCN(Cc2cc(C)c(C)cc2C)CC1` the “activation” value was inactive: -68.7%. In the case of `CCn1cc(C(=O)NCCc2ccc(Cl)cc2)c(=O)c2cc(S(=O)(=O)N3CCC(C)CC3)ccc21`, the “activation” value is reported as inactive: 29%. In the case of `Cc1cccc(Cn2c(=O)c3c(nc4n3CCN4Cc3ccco3)n(C)c2=O)c1`, the “activation” value is reported as inactive: -19.6%. In the case of `O=C(NC1CCCCC1)c1ccc2c(c1)N(Cc1ccc(Cl)cc1)C(=O)c1ccccc1S2=O` (stereo not drawn), the “activation” value is reported as inactive: -29.4%. With `O=C(NC1CCCCC1)N1CCc2ccccc21` the Potency was active: 11.2 µM. For `CSc1ccc(C2N=C(c3ccccc3)NO2)cc1` (stereo not drawn), the Potency was inconclusive: 1.26 µM [activator, partial curve, poor fit]. For `COc1ccc(CNC(=O)Nc2cc(C)cc(C)c2)cc1`, the Potency was inconclusive: 12.6 µM [activator, single point]. For `Cc1ccc(NC(=O)c2cncc(Br)c2)nc1`, the Potency was inconclusive: 1 µM [activator, full curve, poor fit]. For `O=C(NCC(=O)N1CCCCCC1)c1ccc(Cl)cc1`, the Potency was inconclusive: 12.6 µM [activator, partial curve, poor fit]. For `NC(=O)C1CCN(c2nc(-c3cc4ccccc4o3)cs2)CC1`, the Potency was active: 11.2 µM. For `COc1ccc(CCNC(=O)Nc2ccc(F)cc2F)cc1OC`, the “activation” value was inactive: 2.93%. For `Cc1cnc(C(=O)Nc2ccc(N3CCCCC3)cc2)cn1`, the Potency was inconclusive: 0.501 µM [activator, full curve, poor fit]. With `N#C/C(=C\c1c[nH]c2ccccc12)C(=O)NC1CC1` the Potency was inconclusive: 35.5 µM [activator, single point]. With `O=C(O)c1ccc2cc(-c3ccccc3)[nH]c2c1` the activation was inconclusive: -50.2% [activator]. With `Oc1[nH]c2ccccc2c1C=Nc1ccc2c(c1)OCO2` the Potency was inconclusive: 2 µM [activator, full curve, poor fit]. For `CC(C)Cc1nnc(NC(=O)CC(C)c2ccccc2)s1` (stereo not drawn), the “activation” value was inactive: 2.13%. For `O=C(Oc1ccc(-c2cnc3ccccc3n2)cc1)c1ccco1`, the Potency was inconclusive: 3.16 µM [activator, full curve, poor fit]. For `Cc1ccccc1N(CC(=O)NC1CCCC1)C(=O)c1csnn1`, the “activation” value was inactive: 10.3%. For `COc1ccc(Nc2nc(CC(C)=O)ns2)cc1`, the Potency was active: 10 µM. With `CC(=O)c1ccc(S(=O)(=O)N(Cc2cc3cc4c(cc3[nH]c2=O)OCCO4)CC2CCCO2)cc1` (stereo not drawn) the Potency was inconclusive: 14.1 µM [activator, partial curve, poor fit]. In the case of `Clc1ccccc1N=C1NN=C(c2cccs2)CS1`, the Potency is reported as inconclusive: 1.58 µM [activator, partial curve, poor fit]. In the case of `Nc1ccn(C2OC(COP(=O)(O)O)C(O)C2O)c(=O)n1` (stereo not drawn), the “activation” value is reported as inactive: -66.1%. With `COc1ccc(/C=C2\CCCC3C2=NN(C(=O)COC(=O)CNC(=O)c2ccccc2)C3c2ccc(OC)cc2)cc1` (stereo not drawn) the “activation” value was inactive: -0.715%. In the case of `Cc1cccc(C#Cc2ccccc2)n1`, the Potency is reported as inconclusive: 35.5 µM [activator, single point]. In the case of `Nc1ccc(C(=O)OCC(=O)N2CCOCC2)cc1[N+](=O)[O-]`, the Potency is reported as active: 11.2 µM. In the case of `Cc1ccc(OCC(=O)Nc2ccc(Cl)cc2)c([N+](=O)[O-])n1`, the Potency is reported as active: 11.2 µM. With `O=C(Nc1ccc(Br)cc1)c1ccco1` the Potency was inconclusive: 1.58 µM [activator, partial curve, poor fit]. With `CCOC(=O)c1sc2ccccc2c1OC(=O)c1ccc(C)cc1` the “activation” value was inactive: -51.8%. With `COc1cccc(Nc2nc(-c3ccc4c(c3)OCCO4)cs2)c1` the Potency was inconclusive: 2.51 µM [activator, partial curve, poor fit]. With `CC(=O)N1CCc2c(sc3c2c(=O)n(CCc2ccccc2)c(=O)n3Cc2cccc(C)c2)C1` the “activation” value was inactive: 4.1%. In the case of `CCCc1nc(Nc2nc3ccccc3o2)nc(C)c1C(=O)OCC`, the Potency is reported as inconclusive: 3.16 µM [activator, partial curve, poor fit]. With `O=C(CNC(=O)c1cccs1)c1ccc([N+](=O)[O-])cc1` the Potency was inconclusive: 12.6 µM [activator, partial curve, poor fit]. With `CC(=O)N(c1nnc(-c2ccc(C)cc2)s1)C1CCCC1` the Potency was active: 11.2 µM. For `COc1ccc(C(=O)N=c2sc3c(C)ccc(OC)c3n2C)cc1OC`, the Potency was inconclusive: 1.58 µM [activator, partial curve, poor fit]. In the case of `N=c1oc2ccccc2cc1C(=O)Nc1ccccc1`, the activation is reported as inconclusive: 106% [activator]. For `Fc1ccc(C2CC(c3ccco3)=Nc3ccccc3S2)cc1` (stereo not drawn), the “activation” value was inactive: -20.9%. For `CC(=O)Nc1ccc(C(=O)OCCc2ccccc2)cc1`, the Potency was active: 5.01 µM. In the case of `CC(C)(C)c1ccc(C(=O)Nc2ccc(C(=O)NCc3cccnc3)cc2)cc1`, the “activation” value is reported as inactive: -44.2%. For `O=C(Cc1c(F)cccc1Cl)Nc1nc2ccccc2s1`, the Potency was active: 8.91 µM. With `O=C(NCC1CCCO1)c1cc2ccccc2o1` (stereo not drawn) the Potency was inconclusive: 15.8 µM [activator, partial curve, poor fit]. For `COC(=O)c1nc2ccc(N3CCOCC3)cc2c(C)c1C(=O)OC`, the Potency was inconclusive: 3.55 µM [activator, partial curve, poor fit]. In the case of `O=C(Nc1ccc(-c2cn3ccsc3n2)cc1)C1CC1`, the Potency is reported as inconclusive: 2 µM [activator, partial curve, poor fit]. For `Cc1ccc(-n2c(C)c(C)c3c(NCCO)ncnc32)cc1`, the Potency was inconclusive: 11.2 µM [activator, partial curve, poor fit]. In the case of `O=C(Cn1cnc2ccccc2c1=O)Nc1ccc2c(c1)OCO2`, the Potency is reported as inconclusive: 12.6 µM [activator, partial curve, poor fit]. In the case of `Fc1ccc(OCc2cc(-c3ccccc3)no2)cc1`, the Potency is reported as inconclusive: 11.2 µM [activator, partial curve, poor fit]. In the case of `CCOC(=O)N1CCN(C(=O)c2cc(COc3ccc(F)cc3F)on2)CC1`, the Potency is reported as inconclusive: 35.5 µM [activator, single point]. In the case of `Nc1nc(N2CCN(C(=O)c3ccco3)CC2)nc2ccccc12`, the Potency is reported as inconclusive: 11.2 µM [activator, partial curve, poor fit]. In the case of `O=C(Nc1ccc([N+](=O)[O-])cc1)c1ccccc1`, the Potency is reported as inconclusive: 8.91 µM [activator, partial curve, poor fit]. In the case of `C/C(=N\NC(=O)c1ccccc1)c1ccc2c(c1)OCO2`, the Potency is reported as inconclusive: 11.2 µM [activator, partial curve, poor fit]. In the case of `Cc1noc(C)c1COC(=O)c1ccc(-c2nc3ccccc3s2)s1`, the Potency is reported as inconclusive: 2.51 µM [activator, partial curve, poor fit]. For `Cc1cc(NC(=O)c2cccs2)ncc1NC(=O)C(C)C`, the Potency was inconclusive: 2.82 µM [activator, full curve, poor fit]. For `Cc1cccc(-c2cc3nc4c(c(N5CCOCC5)n3n2)CCCC4)c1`, the Potency was inconclusive: 2.82 µM [activator, partial curve, poor fit]. For `CCCOc1ccc(-c2cnc(N)s2)cc1`, the Potency was inconclusive: 5.01 µM [activator, full curve, poor fit].
